Measurements taken from paper PMC6299220 (mBio, 2018).

Test system: M. tuberculosis strain H37Rv

SMILES | reduction of viable CFU (10× and 20× MIC, over 7 days, ~10^7 cells/ml) [log10] | bactericidal activity, time-kill outcome
CCCCS(=O)(=O)Nc1ccc2cnn(C)c2c1 [DG167, N-(1-Methyl-1H-indazol-6-yl)butane-1-sulfonamide] | 2 | 
NNC(=O)c1ccncc1 [INH, isoniazid] |  | rapid reduction of viable CFU levels followed by rapid regrowth
